# According to PubChem BioAssay AID463173 (ICCB-Longwood Screening Facility, Harvard Medical School, 2010):
# Screen size: about 52,000 compounds; about 1,700 (3.3%) were called active. Cut-off read from the data, not from the text of the source: active = survival mostly below about 52% (no sharp cut-off); inactive = mostly above about 56%. This is one part of the list.
# Test system: Wild type
# Test: growth inhibition of S. aureus wild type versus tarO mutant, primary screen, teichoic acid synthesis inhibitors, RN4220, OD600 (AID 463173)
# Conditions: S. aureus RN4220 wild type/DeltatarO growth, OD600, 18 h, stronger effect = lower value, screened at 18.75 µg/mL (by protocol)
row,SMILES,survival
1,N#C/C(=C/c1cccs1)C(N)=S,inactive: 87%
2,CC(=O)c1ccc(S(=O)(=O)N2CCC(Oc3ccc(-n4cnnn4)cc3)CC2)cc1,inactive: 87%
3,O=C(Nc1cccc(C(=O)OCc2cc(=O)n3nc(C4CC4)sc3n2)c1)c1ccc(F)cc1,inactive: 81%
4,CCCC(=O)NC1CC(=O)N(c2ccc3c(c2)OCCO3)C1 (stereo unspecified),inactive: 97%
5,CCc1ccc(NC(=O)CN2C(=O)C(=O)c3ccccc32)cc1,inactive: 65%
6,O=C(Nc1cccc(Cl)c1)N1Cc2ccccc2Oc2ncccc21,inactive: 113%
7,COc1ccc(S(=O)(=O)Nc2ccc(O)c(Sc3nc4ccccc4s3)c2)cc1,inactive: 93%
8,Cc1c(C(=O)N(C)C)sc2c1c(=O)n(-c1ccc(Cl)c(Cl)c1)c(=O)n2Cc1ccc(F)cc1,inactive: 79%
9,COc1ccccc1C1C(C(N)=O)=C(C)Nc2nc(SCc3ccccc3F)nn21 (stereo unspecified),inactive: 80%
10,O=C(Nc1ccccn1)C1(c2ccccc2)CCCC1,inactive: 108%
11,CN(C(=O)CSc1nc2ccc(NC(=O)c3ccc(F)cc3)cc2s1)c1ccccc1,inactive: 75%
12,CCOc1ccccc1NC(=O)c1ccc2oc(=O)c(S(=O)(=O)c3ccc(F)cc3)cc2c1,inactive: 65%
13,Cc1ccccc1CCNC(=O)c1cc2ccccn2n1,inactive: 84%
14,Cc1cccc(N2CCN(C(=O)Cn3nc(C)c4sc5ccccc5c4c3=O)CC2C)c1 (stereo unspecified),inactive: 116%
15,CCn1cc(C(=O)N(C)Cc2ccccc2)c(=O)c2cc(S(=O)(=O)N3CCCCC3)ccc21,inactive: 82%
16,COc1ccc(-c2onc(C)c2C)cc1S(=O)(=O)NC1CCCCC1,inactive: 71%
17,Cc1cccc(N2CCN(c3c(CN4CCCC4)c(=O)oc4ccccc34)CC2)c1C,inactive: 88%
18,COC(=O)C1=C(c2ccccc2)c2ccccc2S(=O)(=O)N1CC(=O)Nc1cc(C)ccc1C,inactive: 77%
19,Cc1ccc(CN2C(=O)C3(SCC(=O)N3c3ccc(C)c(C)c3)c3ccccc32)cc1 (stereo unspecified),inactive: 95%
20,COc1ccccc1C/C(N)=N/OC(=O)c1ccccc1,inactive: 108%
21,CCOC(=O)c1cccc(NC(=O)CCc2c(C)nc3c4cccnc4nn3c2C)c1,inactive: 89%
22,CCOC(=O)Cn1nc(N2CCN(c3ccc(F)cc3)CC2)ccc1=O,inactive: 73%
23,Cc1c(C(=O)N2CCOCC2)oc2c1-c1nn(CC(=O)NCc3ccccc3)cc1CC2,inactive: 87%

row,SMILES,survival
1,CSc1ccc(Nc2nn(-c3ccc(OC(F)(F)F)cc3)nc2C(C)=O)cc1,inactive: 88%
2,CCOCCn1ccc2c(OCC(=O)Nc3cc(C(F)(F)F)ccc3Cl)cccc2c1=O,inactive: 75%
3,COc1ccccc1Cn1c(CNS(=O)(=O)c2c(C)cc(C)cc2C)nc2cccnc21,inactive: 131%
4,Cc1cccc(C(=O)Nc2cc3c(cc2N2CCCCC2)n(C)c(=O)n3C)c1,inactive: 85%
5,CCn1cc(S(=O)(=O)c2ccccc2)c(=O)c2cc(F)c(N3CCCCCC3)cc21,inactive: 74%
6,Cc1ccc(-n2nc(C)c3c(C)c(CCC(=O)NCc4cccc(Cl)c4)c(C)nc32)cc1C,inactive: 125%
7,CC(=O)c1cccc(NC(=O)c2ccc3c(c2)CCN3S(=O)(=O)c2ccccc2)c1,inactive: 71%
8,CCOCCCn1c(=N)c(S(=O)(=O)c2ccccc2)cc2c(=O)n3cc(C)ccc3nc21,inactive: 93%
9,O=C(O)CCn1c(=S)n(CCC(=O)O)c2ccccc21,inactive: 104%
10,Cc1ccccc1OCC(=O)Nc1ccc(S(=O)(=O)Nc2ncccn2)cc1,inactive: 130%
11,O=C(CSc1c2c(nc3ccc(Cl)cc13)CCCC2)N1CCCCC1,inactive: 29%
12,O=C(CSc1ncn[nH]1)N1CCOCC1,inactive: 112%
13,CCOc1ccc(CCNC(=O)c2cc3cc4ccc(OC)cc4nc3s2)cc1OCC,inactive: 101%
14,COCCNC(=O)C(=O)Nc1ccc2nc3n(c(=O)c2c1)CCCCC3,inactive: 87%
15,C=Cc1ccc(Cn2c(C(=O)O)c(CNCc3cc(OC)ccc3OC)c3ccc(C)cc32)cc1,inactive: 92%
16,COc1ccc(C(=O)Oc2c(Sc3ccc(C)cc3)c(C)nn2C(C)(C)C)c(OC)c1,inactive: 60%
17,Nc1c2c(nc3c1CCC3)CCCC2,inactive: 102%
18,C=CCNC(=O)Nc1ccc2oc(C)nc2c1,inactive: 106%
19,COc1ccc(C2NC(=O)N(C)C3=C2C(=O)N(c2ccccc2)C3)cc1 (stereo unspecified),inactive: 88%
20,COc1ccc(-c2nc3c(C#N)c[nH]n3c2NC2CCCCC2)cc1,inactive: 45%
21,COc1ccc(CCNC(=O)C(C)n2nc(C)c3sc4ccccc4c3c2=O)cc1OC (stereo unspecified),inactive: 101%
22,CCC12CN3CC(C)(CN(C1)C3c1c(C)[nH]c3ccccc13)C2=O (stereo unspecified),inactive: 85%
23,CCOc1ccc(C2C(C(=O)Nc3ccc(C)cc3C)=C(C)Nc3c(C(=O)Nc4ccc(C)cc4)cnn32)cc1OC (stereo unspecified),inactive: 83%

row,SMILES,survival
1,COc1ccc(-c2nc(C)c(CCNC(=O)c3cccc(C)c3)s2)cc1OC,inactive: 82%
2,CCCCC(=O)Nc1nnc(S(=O)(=O)N2CCCCCC2)s1,inactive: 91%
3,COC(=O)c1cc2sccc2n1Cc1ccc(F)cc1,inactive: 135%
4,Cc1cccc(-c2cc(NC(=O)c3ccccc3C)n(-c3ccccc3)n2)c1,inactive: 71%
5,CCN(c1cccc(C)c1)C(CNS(=O)(=O)c1ccccc1)c1ccccc1 (stereo unspecified),inactive: 77%
6,CSc1ccc(NC(=O)NCCn2cnc3cccnc32)cc1,inactive: 108%
7,Cc1ccc(C)c(CNC(=O)C2CCCCN2S(=O)(=O)c2ccc(F)cc2)c1 (stereo unspecified),inactive: 118%
8,CCOc1ccc(NC(=O)c2cccc(N3CCCS3(=O)=O)c2)cc1,inactive: 72%
9,Cc1ccc(C)c(N2CCN(C(=O)CN3C(=O)COc4ccc(S(=O)(=O)N5CCOCC5)cc43)CC2)c1,inactive: 86%
10,CCC(=O)Nc1ccc(N2CCCCC2)cc1,inactive: 103%
11,CCC(=O)N1c2ccccc2CC1C(=O)NCCCN1CCN(c2ccccc2)CC1 (stereo unspecified),inactive: 83%
12,CC(=O)N(CCCN1CCOCC1)Cc1ccncc1,inactive: 117%
13,Cc1nc(C)c(-c2csc(NCc3ccccc3)n2)s1,inactive: 123%
14,O=C(Nc1ccc(F)c(Cl)c1)C1CCCN(c2ncnc3onc(-c4ccc(F)cc4)c23)C1 (stereo unspecified),inactive: 74%
15,c1nc(N2CCCC2)c2c3c(sc2n1)CCC3,inactive: 105%
16,COc1ccc(Br)cc1CNC(=O)CCCn1c(=O)c2cccn2c2cccnc21,inactive: 108%
17,CCCS(=O)(=O)c1c(S(=O)(=O)CCC)c2cc(C(C)(C)C)ccn2c1C(=O)c1ccc(OC)c(OC)c1,inactive: 152%
18,COc1ccc(C2C=C(c3ccc(C)cc3)Nc3c(C(=O)Nc4ccccc4)cnn32)cc1 (stereo unspecified),inactive: 43%
19,COc1ccc(CN(Cc2nc3ccccc3c(=O)[nH]2)C(=O)NCc2ccccc2)cc1,inactive: 114%
20,Cc1ccc(C)c(NC(=O)c2cc(S(=O)(=O)N3CCc4ccccc4C3)ccc2F)c1,inactive: 66%
21,COc1ccccc1CNC(=O)c1cc2sccc2n1Cc1ccc(F)cc1,inactive: 147%
22,COc1ccc(-c2noc(-c3ccccc3OCC(=O)Nc3ccc(C(C)=O)cc3)n2)cc1,inactive: 83%
23,O=C(Cn1ncc2c3ccccc3n(Cc3ccccc3)c2c1=O)N1CCCCCC1,inactive: 84%

row,SMILES,survival
1,O=C(NC(c1ccccc1)c1ccccc1)C1CCCO1 (stereo unspecified),inactive: 96%
2,COc1ccccc1NC(=O)Cn1c(=O)n(-c2ccccc2Cl)c(=O)c2sc3ccccc3c21,inactive: 81%
3,CC(C)OC(=O)CN1CCN(C2CCCCC2)CC1,inactive: 102%
4,COCCCn1c(SCc2ccccc2F)nc2c(sc3ccccc32)c1=O,inactive: 98%
5,CCc1cccc(NC(=O)Cn2c(C(=O)OC)cc3occc32)c1,inactive: 83%
6,C=CCn1c(C(CC)CC(C)(C)O)n[nH]c1=S (stereo unspecified),inactive: 102%
7,COc1ccc(CNC(=O)CCCCCn2c(=O)[nH]c3ccccc3c2=O)cc1,inactive: 88%
8,Cc1ccc(CNc2ccc(-c3nc(-c4cccnc4)no3)cc2[N+](=O)[O-])cc1,inactive: 79%
9,CCN(CC)S(=O)(=O)c1ccc2c(c1)N(CC(=O)Nc1ccc(F)cc1F)C(=O)C1CCCN21 (stereo unspecified),inactive: 64%
10,CCOC(=O)c1[nH]c2ccccc2c1NC(=O)c1cc(Cl)ccc1Cl,inactive: 96%
11,CCn1cc(C(=O)NCCc2ccc(Cl)cc2)c(=O)c2cc(S(=O)(=O)N3CCOCC3)ccc21,inactive: 74%
12,CCOC(=O)c1[nH]c2ccccc2c1NC(=O)c1ccc(OC)c(OC)c1,inactive: 141%
13,COc1cc(NC(=O)Cn2c(C)cc(C)c(C#N)c2=O)cc(OC)c1,inactive: 70%
14,Cc1cccc2cc(CN(C(=O)c3ccco3)C3CCCC3)c(=O)[nH]c12,inactive: 100%
15,Oc1cccc(-c2nc3ncccn3c2Nc2cccc(C(F)(F)F)c2)c1,inactive: 71%
16,COc1ccccc1Nc1nc2c(S(=O)(=O)c3ccc(C(C)C)cc3)nnn2c2ccsc12,inactive: 116%
17,CCCC(C(=O)NC1CCCC1)N(C(=O)Cn1nnc(-c2ccc(C)o2)n1)C1CCCC1 (stereo unspecified),inactive: 108%
18,NC(=O)CSc1nnc(COc2ccccc2)n1C1CCCCC1,inactive: 110%
19,O=C(CC(c1cccs1)N1Cc2ccccc2C1=O)Nc1ccc(Cl)cc1 (stereo unspecified),inactive: 129%
20,COc1ccccc1Cc1nc2ccccc2nc1SCC(=O)NCc1ccc(F)cc1,inactive: 63%
21,CCOc1ccc2nc(Cl)c(C3CC(c4ccc(C)cc4)=NN3C(=O)CCCC(=O)O)cc2c1 (stereo unspecified),inactive: 73%
22,Cc1ccc2c(=O)cc(C(=O)Nc3ccc(S(=O)(=O)N4CCCCC4)cc3)oc2c1C,inactive: 108%
